This is one part of the list.
What follows are sequences tested against T1, OsWOX13 (Oryza sativa, UniProt Q5QMM3 1-267) (assay: protein-binding microarray (RPBM); PBS, 2% BSA, 51.3 ng/ul salmon testes DNA, 50 uM zinc acetate, 200 nM TF, 25 C, 1 h; high values mean tight binding). Conditions: protein: recombinant; tags: N-terminal polyhistidine and DsRed monomer fusion (pET32a); label: CyDye5-dUTP incorporated in the synthesized complementary strand; 3' TTTTT single-stranded linker to array surface; dsDNA, one strand shown.
T1 sequence: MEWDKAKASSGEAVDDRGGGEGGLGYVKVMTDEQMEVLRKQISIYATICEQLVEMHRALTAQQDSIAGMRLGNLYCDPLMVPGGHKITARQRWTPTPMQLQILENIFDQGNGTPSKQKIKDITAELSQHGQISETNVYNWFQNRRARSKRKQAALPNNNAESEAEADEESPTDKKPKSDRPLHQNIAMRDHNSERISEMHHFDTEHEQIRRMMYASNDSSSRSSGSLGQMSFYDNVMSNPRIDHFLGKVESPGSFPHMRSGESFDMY
Method in brief: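 The binding signal is fluorescence intensity per array feature (arbitrary units). Readings came from an Axon 4000B scanner after a washed, 2% BSA-blocked, double-stranded custom Agilent array had been incubated for 1 h at 25 °C with 200 nM protein and 50 µM zinc acetate. The protein was a Ni–NTA-purified transcription factor fused N-terminally to polyhistidine and DsRed, expressed in E. coli BL21-CodonPlus.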

Sequence | binding signal
GATGATCCTATATAATTGTGTGAAACAAAATTGAGGTTGTCGGAGTCACCTAGTGCAG | 3920 fluorescence intensity (a.u.)
AATTGGTCCCAATTAATTAATTAACCGCCCAGACGTACAGCGGAGTCACCTAGTGCAG | 26500 fluorescence intensity (a.u.)
ATATTAACTTGATCTATAAATATGTTTATAAATCGACCCACGGAGTCACCTAGTGCAG | 5030 fluorescence intensity (a.u.)
TTTTAAATTTAAAGTTTTGACTTATAAATATAAACATAAACGGAGTCACCTAGTGCAG | 6050 fluorescence intensity (a.u.)
TTAAATTTGGAGTTAAACAGGTCATACTCATGATCAACTACGGAGTCACCTAGTGCAG | 11500 fluorescence intensity (a.u.)
GCTTAATTAATTGATTCAGAAAATAAAATAGTGAAATAACCGGAGTCACCTAGTGCAG | 33400 fluorescence intensity (a.u.)
ATGTGATTTTCACCACATATTTTCCCTAAATAATAATGAGCGGAGTCACCTAGTGCAG | 6900 fluorescence intensity (a.u.)
TATAACAATGGATTTAATGAAATTGATTTAGTGTTATAAGCGGAGTCACCTAGTGCAG | 19600 fluorescence intensity (a.u.)
CACAGATTGGTCTAAGCAAGTACAACCGTGGTACCTAAATCGGAGTCACCTAGTGCAG | 8250 fluorescence intensity (a.u.)
ACGATATCAATTTGATGGTCATGGAACCTGATACCAACCCCGGAGTCACCTAGTGCAG | 3710 fluorescence intensity (a.u.)
ACAATTACACAAATTGCGTGCAAATTATGAGACGGATCTTCGGAGTCACCTAGTGCAG | 11300 fluorescence intensity (a.u.)
GGCAAATCGGTAATTGCCATGTCACAAGAGTGGCAAATAGCGGAGTCACCTAGTGCAG | 12500 fluorescence intensity (a.u.)
CATATGACCGACTAATTTGTGGTAACTTGTTTGTTCCATGCGGAGTCACCTAGTGCAG | 6610 fluorescence intensity (a.u.)
TAAATTAATGATAATTTTCTTTAATACAAATCCGTTGCATCGGAGTCACCTAGTGCAG | 40100 fluorescence intensity (a.u.)
CATTGGACTGCATATTAATTTGAGTATTCTGTTTCTCATTCGGAGTCACCTAGTGCAG | 4630 fluorescence intensity (a.u.)
TGGAGATGAATGATTAGAGCCAAGTGAATGGTCCAAGCACCGGAGTCACCTAGTGCAG | 12400 fluorescence intensity (a.u.)
CTTGTAATTTCTCTGGGTTGATAATATTTAGAGCACGGTCCGGAGTCACCTAGTGCAG | 3880 fluorescence intensity (a.u.)
ACACTAATTATAAATACTAAACGTAGACTATTAATAAAACCGGAGTCACCTAGTGCAG | 9360 fluorescence intensity (a.u.)
AATGCAATTGGATTAGGGGCAATTAACGTTAACCTCTGCCCGGAGTCACCTAGTGCAG | 11400 fluorescence intensity (a.u.)
AGGATTAATTACGCTTAATAAATTTTCTGGCAATTTATAGCGGAGTCACCTAGTGCAG | 51700 fluorescence intensity (a.u.)
CTCTGATAGTTTATAAAACTATATAAGAGATATGTACATTCGGAGTCACCTAGTGCAG | 3370 fluorescence intensity (a.u.)
CAAATTTAAATTTTAACAAGAACTATATAAGCTAGAGGTCCGGAGTCACCTAGTGCAG | 25300 fluorescence intensity (a.u.)
ATAATTTGCTACTCACCAAATAATTTGAGCACCTCTGCACCGGAGTCACCTAGTGCAG | 12100 fluorescence intensity (a.u.)
GATAATTATTTATATAGATGTATTAAATATTATATATTTTCGGAGTCACCTAGTGCAG | 14300 fluorescence intensity (a.u.)
CTGACTTATACTCATCAATCGTCCTCCTCGATTGCTCCTCCGGAGTCACCTAGTGCAG | 6160 fluorescence intensity (a.u.)
GTTTGATTAAACTATATAAAATTTGAATTTTAAAATACAACGGAGTCACCTAGTGCAG | 9960 fluorescence intensity (a.u.)
GGTTCAGATTGATTTCTACTACCAGTAAGGTGAGGCTCTACGGAGTCACCTAGTGCAG | 33900 fluorescence intensity (a.u.)

Sequence | binding signal
TAACAAAATTATTATAAAACTACAACATTTTATAATTTGGCGGAGTCACCTAGTGCAG | 3190 fluorescence intensity (a.u.)
TCTCCAGAATTAGATTAAATTTCATAAAACTCCACCTGATCGGAGTCACCTAGTGCAG | 8480 fluorescence intensity (a.u.)
ATTTACGTAAATTATATTATTTTGTTATGAGTTATTTTATCGGAGTCACCTAGTGCAG | 5900 fluorescence intensity (a.u.)
CTCAAATTATTGTTAAACCTTCATATAAATCGACCCCAATCGGAGTCACCTAGTGCAG | 7650 fluorescence intensity (a.u.)
ACTAAATCTCTCTAGTTATCCAATCACCACAAAGTAAAGACGGAGTCACCTAGTGCAG | 5060 fluorescence intensity (a.u.)
TTTTAATCAAACTTATTTAAGTTTGGTCAAACTTATAGATCGGAGTCACCTAGTGCAG | 3910 fluorescence intensity (a.u.)
TCTTCTCTATCAGTGATTTGGAATATCTACAGATAGAAAACGGAGTCACCTAGTGCAG | 3260 fluorescence intensity (a.u.)
ATCAGCTAAAATTTAAATTTTCAACCTTAAATATTTGATTCGGAGTCACCTAGTGCAG | 5360 fluorescence intensity (a.u.)
GAAGGAGATTAGATTAGATTAGCGACGAATTCGTCAAACCCGGAGTCACCTAGTGCAG | 12400 fluorescence intensity (a.u.)
ATTCAATTTCCCATTTTCTTGCTGGTCACATCACAAACACCGGAGTCACCTAGTGCAG | 4560 fluorescence intensity (a.u.)
AAATTAAATGCCTTTATAATTACTGCCCTCCGATTCAAACCGGAGTCACCTAGTGCAG | 8500 fluorescence intensity (a.u.)
CATATCCCATTTGCCAATCACACCCTGAGAGTATGTATATCGGAGTCACCTAGTGCAG | 6560 fluorescence intensity (a.u.)
AATAATTCTAGATTACTAGCACTGCTTTGTTCTATTTGATCGGAGTCACCTAGTGCAG | 5920 fluorescence intensity (a.u.)
CGTGCTTGATTTATGTAACTAAGGATAATAGGAGAAGAGGCGGAGTCACCTAGTGCAG | 19500 fluorescence intensity (a.u.)
AATTGTAATTTGTAGTATATTCAGACAAACTAACCATTGGCGGAGTCACCTAGTGCAG | 14800 fluorescence intensity (a.u.)
TTGTAATTTGGGCTCTCTAAAGTCTAAGCCATTTAAAAGGCGGAGTCACCTAGTGCAG | 3510 fluorescence intensity (a.u.)
GTTTTAGCTAATATTTAATTAATCATGTGCTAATGAGCTACGGAGTCACCTAGTGCAG | 8590 fluorescence intensity (a.u.)
TATAATTAGTATATGCTTACATGTTGAGCCTTGTGTGTTTCGGAGTCACCTAGTGCAG | 26600 fluorescence intensity (a.u.)
TTTTCTCAATTATTTCAGGGTCACATAGTACCTCTCCATTCGGAGTCACCTAGTGCAG | 3160 fluorescence intensity (a.u.)
TCTGTTGATGAATGGATTGATTGATGGATGGATGGATGGTCGGAGTCACCTAGTGCAG | 64100 fluorescence intensity (a.u.)
ACCCTCCTCTCTCTCTCTCTCTCTCTCTATCCATCTCTTTCGGAGTCACCTAGTGCAG | 3170 fluorescence intensity (a.u.)
CACTTGGGGAATTCCTGATTAGAACTCCATCATTATGACTCGGAGTCACCTAGTGCAG | 5560 fluorescence intensity (a.u.)
TAATATCTAATTAATTATATACTAATGACTCGTTTAGTTTCGGAGTCACCTAGTGCAG | 31300 fluorescence intensity (a.u.)
GAATACTGACAGTAAAGATGATTGCAGAATTAGCTCATAGCGGAGTCACCTAGTGCAG | 19400 fluorescence intensity (a.u.)
CCTAATTAATCCATGATTAGTCATAAGTGTTACAATAATCCGGAGTCACCTAGTGCAG | 55500 fluorescence intensity (a.u.)
TGTACATAATTGTTGGGCTTGCACTTCAGTTAGGCCTGTGCGGAGTCACCTAGTGCAG | 7380 fluorescence intensity (a.u.)
GTTTGACAGTTAAAATCTAGATTAAAGCATCATGTGCATTCGGAGTCACCTAGTGCAG | 11400 fluorescence intensity (a.u.)
